Assay results as given in PubChem BioAssay AID652104 (National Center for Advancing Translational Sciences (NCATS), 2013).
The campaign covered roughly 410,000 compounds. About 7,200 (1.8%) were called active. Inconclusive results, whose numbers are uncertain, are shown with a selection of clear calls. Calls come from the whole dose curve; as a rule, active = well fitted activation curve with a large enough effect; inconclusive = small, poorly fitted or top-dose-only effect, or another doubt; inactive = no such curve, though single readings can be large or run the other way. No potency is given beside an inconclusive call; the fits are too rough.

Assay: qHTS of TDP-43 Inhibitors; note: nearly all actives have a fitted effect of over 50% in size; for growth rescue (activation): % of control where 0% means no effect
Settings: TDP-43 expressing yeast growth rescue, BacTiter-Glo, 24 h; growth rescue (activation): at 46.1 µM (top of the series) unless noted
Procedure, shortened: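 Yeast expressing TDP-43 (pregrown in raffinose, seeded at OD600=0.02 in galactose medium) exposed to compounds 24 hr at 30 deg C. Growth read by BacTiter-Glo luminescence; rescue of toxicity appears as increased signal.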
Potency is the fitted concentration of half-maximal effect; tags give direction and shape of the fitted curve.

SMILES	Potency	growth rescue (activation)
CCC(C)(C)C(=O)O[C@H]1C[C@@H](C)C=C2C=C[C@H](C)[C@H](CC[C@@H]3C[C@@H](O)CC(=O)O3)[C@H]21	active: 14.1 µM	–
CC1(C(=O)NS(=O)(=O)c2ccccc2Cl)CCN1C(=O)C1(c2ccc(Cl)cc2)CCC1 (configuration not stated)	active: 12.6 µM	–
O=C(O)c1cc2cc(OCc3ccccc3)ccc2[nH]1	inconclusive [activator, single point]	–
Cc1ccc(-c2cc(-c3ccccc3)nc(NN)n2)cc1	inconclusive [activator, single point]	–
CCOc1ccc(-c2c(C)nn3c(C)c(C(=O)NCC(C)c4ccccc4)cnc23)cc1OCC (configuration not stated)	inconclusive [activator, partial curve]	–
O=C1C=C(OCCF)CC(c2ccc(Br)cc2)O1 (configuration not stated)	inconclusive [activator, partial curve, poor fit]	–
O=S(=O)(NCCc1ccc(F)cc1)c1cc(C(F)(F)F)ccc1Br	inconclusive [activator, single point]	–
COCCCNc1oc(/C=C/c2ccccc2)nc1C#N	–	inactive: 13.1%
CCc1cccc(C)c1Nc1c(-c2ccc(N3CCOCC3)cc2)nc2ncccn12	inconclusive [activator, partial curve, poor fit]	–
COC(=O)c1c(NC(=O)C2=COCCO2)sc(C)c1C	inconclusive [activator, single point]	–
Clc1c(CSc2nc3ccccc3o2)nc2ccccn12	inconclusive [activator, partial curve]	–
O=C(Nc1ccccc1C(F)(F)F)c1noc2c1CCCCC2	inconclusive [activator, single point]	–
CC(C)c1ccc(/C=C2\SC(=S)N(CCC(=O)N3CCCCC3CCO)C2=O)cc1 (configuration not stated)	inconclusive [activator, single point]	–
Cc1ccc(NC(=O)CSc2nsc(SCC(=O)Nc3ccc(C)cc3C)c2C#N)c(C)c1	inconclusive [activator, partial curve]	–
COc1ccc(OCCn2cc(/C=N/NC(=O)c3ccncc3)c3ccccc32)cc1	inconclusive [activator, partial curve]	–
COc1ccc(OC)c(NC(=O)c2ccc(-c3csc(C)n3)cc2)c1	inconclusive [activator, single point]	–
CSc1nc2ccc(NS(=O)(=O)c3ccc4c(c3)OCCO4)cc2s1	inconclusive [activator, single point]	–
